According to the supplement of paper PMC4604168 (melanoma cell lines):
Some of the results follow. Repeats are few or missing, and single values can be far off.

What was measured:
Experiment in all cases: cell count relative to DMSO control; melanoma cells; higher = more viable cells
Conditions in all cases: library dose: standard library concentration; 72 h
G361 = test system: G361
IPC-298 = test system: IPC-298
IST-MEL1 = test system: IST-MEL1
LB2518-MEL = test system: LB2518-MEL
LOXIMVI = test system: LOXIMVI
MEL-HO = test system: MEL-HO
MZ2-MEL = test system: MZ2-MEL
MeWo = test system: MeWo
RPMI7951 = test system: RPMI7951
RVH-421 = test system: RVH-421
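Also: cells treated in 1,536-well plates, then fixed and DAPI-stained, with nuclei counted from automated high-throughput microscope images.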

Structure (SMILES) | cell count (G361) [%] | cell count (IPC-298) [%] | cell count (IST-MEL1) [%] | cell count (LB2518-MEL) [%] | cell count (LOXIMVI) [%] | cell count (MEL-HO) [%] | cell count (MZ2-MEL) [%] | cell count (MeWo) [%] | cell count (RPMI7951) [%] | cell count (RVH-421) [%]
Cc1cc(Nc2cc(N3CCN(C)CC3)nc(Sc3ccc(NC(=O)C4CC4)cc3)n2)n[nH]1 [Tozasertib] + C=CCNC1=C2C[C@@H](C)C[C@H](OC)[C@H](O)[C@@H](C)/C=C(\C)[C@H](OC(N)=O)[C@@H](OC)/C=C\C=C(/C)C(=O)NC(=CC1=O)C2=O [Tanespimycin] (first compound 0.03 µM, partner dose 0.01 µM) | 64.8 | 75.6 | 77.1 | 78.1 | 114 | 70.8 | 63.8 | 58.7 | 26.9 | 84.7
CC[C@]1(O)C[C@H]2CN(CCc3c([nH]c4ccccc34)[C@@](C(=O)OC)(c3cc4c(cc3OC)N(C=O)[C@H]3[C@@](O)(C(=O)OC)[C@H](OC(C)=O)[C@]5(CC)C=CCN6CC[C@]43[C@@H]65)C2)C1 [vincristine] + C[C@]1(c2nc3c(C(N)=O)cccc3[nH]2)CCCN1 [Veliparib] (first compound 0.0005 µM, partner dose 7 µM) | 37.6 | 78.2 | 51.7 | 70.4 | 64.6 | 63.3 | 33.2 | 24.7 | 16.8 | 34.2
CC[C@]1(O)C[C@H]2CN(CCc3c([nH]c4ccccc34)[C@@](C(=O)OC)(c3cc4c(cc3OC)N(C=O)[C@H]3[C@@](O)(C(=O)OC)[C@H](OC(C)=O)[C@]5(CC)C=CCN6CC[C@]43[C@@H]65)C2)C1 [vincristine] + Oc1nc(-c2ccc(C(F)(F)F)cc2)nc2c1CSCC2 [XAV939] (first compound 0.0005 µM, partner dose 10 µM) | 80.6 | 94.9 | 89.2 | 77.6 | 88.1 | 83.9 | 84.2 | 58.8 | 55.8 | 82.2
Cc1cc(Nc2cc(N3CCN(C)CC3)nc(Sc3ccc(NC(=O)C4CC4)cc3)n2)n[nH]1 [Tozasertib] + NC(=O)c1ccc(N(C(N)=O)c2c(F)cccc2F)nc1-c1ccc(F)cc1F [VX702] (first compound 0.03 µM, partner dose 2 µM) | 77 | 75.2 | 94.5 | 86.5 | 150 | 82.1 | 65.6 | 79.4 | 78.8 | 61.8
Cc1cc(Nc2cc(N3CCN(C)CC3)nc(Sc3ccc(NC(=O)C4CC4)cc3)n2)n[nH]1 [Tozasertib] + C[C@@H]1CCN(C(=O)CC#N)C[C@@H]1N(C)c1ncnc2[nH]ccc12 [CP690550] (first compound 0.03 µM, partner dose 5 µM) | 81.6 | 107 | 53.1 | 85.3 | 73.4 | 93.8 | 102 | 79.6 | 101 | 96.4
Cc1cc(Nc2cc(N3CCN(C)CC3)nc(Sc3ccc(NC(=O)C4CC4)cc3)n2)n[nH]1 [Tozasertib] + COc1ccc(Cl)c(Nc2nc3ccccc3nc2NS(=O)(=O)c2cccc(NC(=O)C(C)(C)N)c2)c1 [XL147] (first compound 0.03 µM, partner dose 4 µM) | 71.4 | 70.8 | 57.9 | 55.8 | 96 | 63.3 | 66.5 | 83.6 | 89.5 | 82.7
Cc1cc(Nc2cc(N3CCN(C)CC3)nc(Sc3ccc(NC(=O)C4CC4)cc3)n2)n[nH]1 [Tozasertib] + Cn1c(=O)n(-c2ccc(C(C)(C)C#N)cc2)c2c3cc(-c4cnc5ccccc5c4)ccc3ncc21 [NVP-BEZ235] (first compound 0.03 µM, partner dose 0.02 µM) | 60.7 | 78.9 | 78.1 | 77.4 | 87.4 | 78.9 | 81 | 71.2 | 68.2 | 86.3
CC[C@]1(O)C[C@H]2CN(CCc3c([nH]c4ccccc34)[C@@](C(=O)OC)(c3cc4c(cc3OC)N(C=O)[C@H]3[C@@](O)(C(=O)OC)[C@H](OC(C)=O)[C@]5(CC)C=CCN6CC[C@]43[C@@H]65)C2)C1 [vincristine] + CCCCCCCCCCCCCCCCCCOP(=O)([O-])OC1CC[N+](C)(C)CC1 [Perifosine] (first compound 0.0005 µM, partner dose 2 µM) | 89.3 | 102 | 91.6 | 93.5 | 64 | 99.8 | 102 | 108 | 21.8 | 129
N#CC[C@H](C1CCCC1)n1cc(-c2ncnc3[nH]ccc23)cn1 [ruxolitinib] + CN(C)S(=O)(=O)c1ccc2c(c1)/C(=C/c1cc3c([nH]1)CCCC3)C(=O)N2 [SU6656] (first compound 5 µM, partner dose 2 µM) | 71.5 | 77.6 | 75 | 77.7 | 127 | 70.9 | 80.5 | 76.5 | 53.9 | 76.2
Cc1cc(Nc2cc(N3CCN(C)CC3)nc(Sc3ccc(NC(=O)C4CC4)cc3)n2)n[nH]1 [Tozasertib] + Cn1c(Nc2ccc(C(F)(F)F)cc2)nc2cc(Oc3ccnc(-c4ncc(C(F)(F)F)[nH]4)c3)ccc21 [CHIR265] (first compound 0.03 µM, partner dose 0.4 µM) | 16.8 | 43.3 | 82.2 | 21.8 | 80.1 | 71.7 | 38.8 | 65.8 | 43 | 69.5
CC[C@]1(O)C[C@H]2CN(CCc3c([nH]c4ccccc34)[C@@](C(=O)OC)(c3cc4c(cc3OC)N(C=O)[C@H]3[C@@](O)(C(=O)OC)[C@H](OC(C)=O)[C@]5(CC)C=CCN6CC[C@]43[C@@H]65)C2)C1 [vincristine] + COCC[n+]1c2c(n(Cc3cnccn3)c1C)C(=O)c1ccccc1C2=O [YM155] (first compound 0.0005 µM, partner dose 0.002 µM) | 89.1 | 54.8 | 50.9 | 26.2 | 37.1 | 98.9 | 28.5 | 44.2 | 27.8 | 86.7
CC[C@]1(O)C[C@H]2CN(CCc3c([nH]c4ccccc34)[C@@](C(=O)OC)(c3cc4c(cc3OC)N(C=O)[C@H]3[C@@](O)(C(=O)OC)[C@H](OC(C)=O)[C@]5(CC)C=CCN6CC[C@]43[C@@H]65)C2)C1 [vincristine] + C[C@@H](N)c1ccc(C(=O)Nc2ccnc3[nH]ccc23)cc1 [RKI983] (first compound 0.0005 µM, partner dose 2 µM) | 54.1 | 76.7 | 38.1 | 72.9 | 63.6 | 54.1 | 31.6 | 17.8 | 48.9 | 59
Cc1cc(Nc2cc(N3CCN(C)CC3)nc(Sc3ccc(NC(=O)C4CC4)cc3)n2)n[nH]1 [Tozasertib] + O=C(O)C(=O)Nc1sc2c(c1C(=O)O)CCNC2 [TCS401] (first compound 0.03 µM, partner dose 8.33333 µM) | 94.5 | 102 | 110 | 87.7 | 115 | 85.5 | 79.1 | 80.9 | 121 | 91.2
Cc1cc(Nc2cc(N3CCN(C)CC3)nc(Sc3ccc(NC(=O)C4CC4)cc3)n2)n[nH]1 [Tozasertib] + CCCCCCCCc1ccc(CCC(N)(CO)CO)cc1 [fingolimod] (first compound 0.03 µM, partner dose 10 µM) | 2.19 | 61.8 | 23.2 | 0.459 | 36.6 | 42.1 | 45.1 | 51.3 | 0.832 | 29.1
CC[C@]1(O)C[C@H]2CN(CCc3c([nH]c4ccccc34)[C@@](C(=O)OC)(c3cc4c(cc3OC)N(C=O)[C@H]3[C@@](O)(C(=O)OC)[C@H](OC(C)=O)[C@]5(CC)C=CCN6CC[C@]43[C@@H]65)C2)C1 [vincristine] + CN(C)S(=O)(=O)c1ccc2c(c1)/C(=C/c1cc3c([nH]1)CCCC3)C(=O)N2 [SU6656] (first compound 0.0005 µM, partner dose 2 µM) | 44 | 61 | 44.9 | 59.3 | 65.6 | 69.5 | 48.4 | 40.4 | 21.4 | 54.5
N#CC[C@H](C1CCCC1)n1cc(-c2ncnc3[nH]ccc23)cn1 [ruxolitinib] + Cc1ccc(NC(=O)c2cccc(N(C)C)c2)cc1NC(=O)c1ccc(O)cc1 [ZM336372] (first compound 5 µM, partner dose 10 µM) | 66.4 | 88.1 | 75.2 | 113 | 98.2 | 84.6 | 84.5 | 84.9 | 87.6 | 84.7
Cc1cc(Nc2cc(N3CCN(C)CC3)nc(Sc3ccc(NC(=O)C4CC4)cc3)n2)n[nH]1 [Tozasertib] + CNC(=O)c1cc(Oc2ccc(NC(=O)Nc3ccc(Cl)c(C(F)(F)F)c3)cc2)ccn1 [sorafenib] (first compound 0.03 µM, partner dose 2 µM) | 78.8 | 79.5 | 109 | 61.4 | 111 | 92.8 | 66.5 | 87.5 | 68 | 97.4
Cc1cc(Nc2cc(N3CCN(C)CC3)nc(Sc3ccc(NC(=O)C4CC4)cc3)n2)n[nH]1 [Tozasertib] + C#Cc1cccc(Nc2ncnc3cc(OCCOC)c(OCCOC)cc23)c1 [erlotinib] (first compound 0.03 µM, partner dose 4 µM) | 64.5 | 51.4 | 97.6 | 43.3 | 100 | 81.8 | 56.3 | 60.6 | 53.8 | 89.5
CC[C@]1(O)C[C@H]2CN(CCc3c([nH]c4ccccc34)[C@@](C(=O)OC)(c3cc4c(cc3OC)N(C=O)[C@H]3[C@@](O)(C(=O)OC)[C@H](OC(C)=O)[C@]5(CC)C=CCN6CC[C@]43[C@@H]65)C2)C1 [vincristine] + Cc1ccc(NC(=O)c2cccc(N(C)C)c2)cc1NC(=O)c1ccc(O)cc1 [ZM336372] (first compound 0.0005 µM, partner dose 10 µM) | 108 | 99.3 | 84.1 | 74.7 | 95.7 | 84.6 | 97.4 | 68.4 | 44.9 | 43.7
